Reference: PubChem BioAssay AID624417 (National Center for Advancing Translational Sciences (NCATS), 2012)
Among all 410,000 compounds or so, about 6,400 (1.6%) were called active. This list was built around the results that the source calls inconclusive (neither active nor inactive); the mix of calls is not that of the screen. The call rests on the fitted dose curve; in most records, active means well fitted inhibition curve with a large enough effect; inconclusive means small, poorly fitted or top-dose-only effect; inactive means no such curve, though single readings can be large or run the other way. No potency is given beside an inconclusive call; the fits are too rough.

Biological target: Glucagon-like peptide 1 receptor (Homo sapiens) (UniProt P43220)
UniProt P43220, sequence (P43220 whole entry, looked up): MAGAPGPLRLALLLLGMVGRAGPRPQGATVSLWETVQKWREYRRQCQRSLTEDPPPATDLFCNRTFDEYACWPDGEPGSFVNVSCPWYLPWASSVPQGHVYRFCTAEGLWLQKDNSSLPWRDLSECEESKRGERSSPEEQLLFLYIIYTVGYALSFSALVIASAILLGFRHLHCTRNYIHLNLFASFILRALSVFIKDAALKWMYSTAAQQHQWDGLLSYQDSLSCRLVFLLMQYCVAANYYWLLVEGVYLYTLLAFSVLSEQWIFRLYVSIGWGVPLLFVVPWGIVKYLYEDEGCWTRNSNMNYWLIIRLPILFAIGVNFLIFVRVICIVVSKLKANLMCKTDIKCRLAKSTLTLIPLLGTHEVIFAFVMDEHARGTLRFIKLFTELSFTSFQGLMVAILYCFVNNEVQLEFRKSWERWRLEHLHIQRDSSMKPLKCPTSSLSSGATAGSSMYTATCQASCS
Test: qHTS of GLP-1 Receptor Inverse Agonists (Inhibition Mode); further: nearly all actives have a fitted effect of over 55% in size
Conditions: HEK293 GLP-1R CRE-luciferase, luminescence, 24 h, GLP-1R form is constitutively active; series mostly up to 38.3 µM
Procedure, shortened: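 Inverse agonism was detected as reduced cAMP-driven luciferase luminescence after 24 h compound treatment. The cells were HEK293 clones expressing constitutively active human GLP-1R with the reporter. Reporter-only and GPR119 cell lines served as counterscreen controls.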
Potency means the concentration at half of the fitted maximal effect; tags describe the fitted curve by direction and shape.

Compound | Potency
COc1ccc(C2NC(C(=O)O)Cc3c2[nH]c2ccccc32)cc1CN1CCN(c2ccc(F)cc2)CC1 (stereo unspecified) | inconclusive [inhibitor, partial curve]
CSc1ccc(CN2CCC(C)(Oc3cccc(F)c3)C2)cc1 (stereo unspecified) | inactive
NCCCCCCNS(=O)(=O)c1cccc2c(Cl)cccc12 | inconclusive [inhibitor, single point]
CCCCSCCCNC(=O)CN1C(=O)COc2ccc(S(=O)(=O)N3CCCC3)cc21 | inconclusive [inhibitor, single point]
O=C(NCCN1C(=O)S/C(=C\c2cccc(Cl)c2Cl)C1=O)C1=COCCO1 | inconclusive [inhibitor, partial curve, poor fit]
COc1ccc(CNc2nc(-c3ccc(OC)c(OC)c3)cc(C(F)(F)F)n2)cc1 | inconclusive [inhibitor, single point]
COc1cccc(S(=O)(=O)NCc2ccc(C(=O)Nc3ccc(Cl)cc3)cc2)c1 | inconclusive [inhibitor, full curve]
COc1cccc(/C=C(\C#N)c2nc3ccc(C)cc3[nH]2)c1 | inconclusive [inhibitor, partial curve]
COc1cc(OC)cc(C(=O)NCc2ccc3c(c2)cc(C)n3C)c1 | inconclusive [inhibitor, full curve, poor fit]
COc1cc2c(ccc3cc(OC)c(OC)c(O)c32)cc1O | inactive
CCCCC(=O)NC(=S)Nc1cccc(NC(=O)c2ccccc2)c1 | inconclusive [inhibitor, single point]
Cc1ccc(C(C)C)c(OCC(O)CN2CC(C)OC(C)C2)c1 (stereo unspecified) | inconclusive [inhibitor, partial curve, poor fit]
Cc1onc(-c2ccccc2)c1C(=O)N/N=C/c1ccc(Br)cc1 | inconclusive [inhibitor, single point]
COc1ccc(-c2coc3cc(OC(C)=O)ccc3c2=S)cc1 | inconclusive [inhibitor, single point]
COc1ccc(S(=O)(=O)Nc2cccc3c2O[C@H](CN(C)C(=O)Nc2ccc(C(F)(F)F)cc2)[C@@H](C)CN([C@H](C)CO)C3=O)cc1 | inconclusive [inhibitor, single point]
COc1cc2[nH]c(C)c(-c3ccccc3)c(=O)c2cc1Cl | inactive
S=C(NCCc1ccccn1)Nc1cc(Cl)cc(Cl)c1 | inconclusive [inhibitor, partial curve, poor fit]
Cc1nn(-c2ccccc2)c(Cl)c1C(=O)Nc1nnc(C2CCCC2)s1 | inconclusive [inhibitor, single point]

Compound | Potency
Cc1c(C(=O)NCc2cccc([N+](=O)[O-])c2)sc(=O)n1Cc1ccc(F)cc1 | inconclusive [inhibitor, single point]
CCSc1oc(-c2ccccc2)nc1S(=O)(=O)c1ccccc1 | inconclusive [inhibitor, single point]
CC(=O)Oc1ccc(/C(C)=N\N2CCN(Cc3ccc(Cl)cc3)CC2)cc1 | inconclusive [inhibitor, partial curve, poor fit]
O=C(CSc1nnc(COc2ccccc2)n1-c1ccccc1)c1ccccc1 | inconclusive [inhibitor, partial curve, poor fit]
O=C1CCC(C(=O)N2CCSCC2)CN1CCc1ccccc1 (stereo unspecified) | inconclusive [inhibitor, full curve, poor fit]
Cc1ccccc1-c1ccc(C=Nc2c(C)n(C)n(-c3ccccc3)c2=O)o1 | inconclusive [inhibitor, partial curve]
CCOc1cc(CN2CCCC(CO)(Cc3ccc(F)cc3F)C2)ccc1OC (stereo unspecified) | inconclusive [inhibitor, single point]
CN(Cc1ccccc1)C(=O)C1CCCN(c2ncnc3c2nc2n3CCCCC2)C1 (stereo unspecified) | inconclusive [inhibitor, single point]
O=C(O)c1ccc(S(=O)(=O)N(CCc2ccccc2)Cc2ccc(Cl)cc2)cc1 | inconclusive [inhibitor, single point]
C/C=C(/C)C(=O)OC1CC(C)(C)C[C@H]2C3=CC[C@@H]4[C@@]5(C)CCC(O[C@@H]6O[C@@H](C(=O)O)[C@@H](O)C(O[C@@H]7OC[C@H](O)[C@@H](O)[C@@H]7O[C@@H]7OC(CO)C(O)[C@@H](O)[C@@H]7O)C6O[C@@H]6OC(CO)C(O)C(O)C6O)[C@@](C)(CO)[C@@H]5CC[C@]4(C)[C@]3(C)CC(O)[C@@]12CO (stereo partly specified) | inconclusive [inhibitor, single point]
COc1ccc(Cl)c(NC(=O)C/C(C)=N/NC(=O)CCc2ccccc2)c1 | inconclusive [inhibitor, single point]
O=C(NC1CC1)C1=C[C@@H](c2ccc(C(F)(F)F)cc2)C[C@@H](OCc2ccc(CO)cc2)O1 | inconclusive [inhibitor, single point]
C/C(=N\NC(=O)c1ccc2c(c1)OCO2)c1ccc(O)cc1 | inconclusive [inhibitor, single point]
Cc1ccc(C(=O)Nc2cccc(C(=O)N3CCOCC3)c2)cc1 | inconclusive [inhibitor, single point]
CCOc1ccc(C(C)NC(=S)NCc2ccc(Cl)cc2)cc1 (stereo unspecified) | inconclusive [inhibitor, partial curve, poor fit]
O=P(Cc1nnco1)(c1ccccc1)c1ccccc1 | inactive
CSCCC1NC2(C(=O)Nc3ccc(Cl)cc32)[C@@H]2C(=O)N(C3CCCC3)C(=O)[C@H]12 (stereo partly specified) | inconclusive [inhibitor, single point]
COc1ccccc1CN1CCC(CNS(=O)(=O)c2cc(-c3cc(C)no3)ccc2C)CC1 | inconclusive [inhibitor, partial curve, poor fit]
